Measurements reported in PubChem BioAssay AID588855 (National Center for Advancing Translational Sciences (NCATS), 2011).
Hit rate of the full screen: of about 410,000 compounds, about 5,000 (1.2%) were called active. The inconclusive results got no clear call from the source; some entries with a clear call stand among them for comparison. Calls come from the whole dose curve; as a rule, active = well fitted inhibition curve with a large enough effect; inconclusive = small, poorly fitted or top-dose-only effect; inactive = no such curve, though single readings can be large or run the other way. Potencies beside an inconclusive call are fits to weak or partial responses and may not hold up.

Assay: qHTS for Inhibitors of TGF-b; note: nearly all actives have a fitted effect of over 65% in size
Conditions: HepG2 CAGA-GFP TGF-b/SMAD3 reporter, GFP fluorescence, 18 h, TGF-beta stimulated, 500 pg/mL final; series mostly up to 46.1 µM; activity, negative = inhibition: at the top concentration
Procedure, shortened: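 Using HEPG2 CAGA-GFP reporter cells at 1000 cells/well, we pinned test compounds, stimulated with recombinant TGF-beta (500 pg/mL final) and measured total well GFP after 18 h.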
% is set by controls: 0 for no effect and ±100 for the full control effect; potency is the fitted concentration of half-maximal effect; tags give direction and shape of the fitted curve.

| SMILES | Potency | activity, negative = inhibition |
| --- | --- | --- |
| Cc1ccc(C(=O)Nc2c(-c3ccccc3)nc3ccccn23)cc1 | inconclusive: 35.5 µM [inhibitor, partial curve, poor fit] | – |
| Cc1nnc(N2CCC(C(=O)Nc3ccc(F)cc3)CC2)c2nn(-c3ccc(Cl)cc3)c(C)c12 | active: 10 µM | – |
| O=C(CN1CC(=O)Oc2ccccc21)OCC(=O)c1cccc(Br)c1 | inconclusive: 14.1 µM [inhibitor, single point] | – |
| CC1CCCN(C2=C(NS(=O)(=O)c3ccc(Cl)cc3)C(=O)c3ccccc3C2=O)C1 (stereo not drawn) | inconclusive: 11.2 µM [inhibitor, partial curve, poor fit] | – |
| C=CS(=O)(=O)N(Cc1ccccc1Br)[C@H](CO)CC(C)C | inconclusive: 35.5 µM [inhibitor, single point] | – |
| COc1cccc(/C=C2/SC(=S)N(CCC(=O)N3CCOCC3)C2=O)c1 | – | inactive: -7.51% |
| CCCCCCCCNc1ncnc2ccccc12 | inconclusive: 1.41 µM [inhibitor, partial curve, poor fit] | – |
| Cc1cc2c(cc1S(=O)(=O)N1CCN(c3ccccc3)CC1)OCC(=O)N2 | inconclusive: 35.5 µM [inhibitor, single point] | – |
| O=C(CSc1cccc[n+]1[O-])Nc1cc2c(cc1Cl)C(=O)c1ccccc1C2=O | – | inactive: -11.8% |
| Cc1cc(Sc2ncnc(N)c2[N+](=O)[O-])ncn1 | inconclusive: 12.6 µM [inhibitor, partial curve, poor fit] | – |
| NC(=O)[C@H]1CC2(CC(c3cccc(NC(=O)COc4ccc(Cl)cc4)c3)=NO2)CN1C(=O)C(c1ccccc1)c1ccccc1 (stereo partly drawn) | inconclusive: 0.708 µM [inhibitor, full curve, poor fit] | – |
| O=C(CSCc1ccc([N+](=O)[O-])cc1)NN=C1CCCCCC1 | inconclusive: 5.62 µM [inhibitor, single point] | – |
| COc1ccc2[nH]c3c(N4CCc5ccccc5C4)ncnc3c2c1 | active: 7.08 µM | – |
| Cc1ccccc1CNC(=O)C1CCN(S(=O)(=O)Cc2ccccc2)CC1 | – | inactive: 2.43% |
| Cc1ccc(NC(=S)NCCc2ccc(S(N)(=O)=O)cc2)cc1C | inconclusive: 0.891 µM [inhibitor, full curve, poor fit] | – |
| CC1=C(C(=O)NCc2cccc(Br)c2)C2(CCCCC2)OC1=O | inconclusive: 35.5 µM [inhibitor, single point] | – |
| CCOC(=O)c1nc(S(C)(=O)=O)ncc1Cl | inconclusive: 11.2 µM [inhibitor, partial curve, poor fit] | – |
| CCOc1ccc(-c2nonc2NC(=O)c2ccco2)cc1 | inactive | – |
| Cc1c(C(=O)NCc2ccc(Cl)c(Cl)c2)sc(=O)n1Cc1ccccc1F | inconclusive: 12.6 µM [inhibitor, single point] | – |
| CCOc1ccc(NC(=O)CSc2nc3c(oc4ccccc43)c(=O)n2-c2cc(C)cc(C)c2)cc1 | inconclusive: 1.12 µM [inhibitor, full curve, poor fit] | – |
| CCOC(=O)C1CCN(c2c(NCc3ccc(C(=O)Nc4ccc(C)cc4)cc3)c(=O)c2=O)CC1 | inconclusive: 35.5 µM [inhibitor, single point] | – |
| Cc1ccc(NC(=O)CSc2nnc(-c3cc4occc4n3C)n2-c2ccccc2C)c(Cl)c1 | inconclusive: 1 µM [inhibitor, partial curve, poor fit] | – |
| O=C(O)c1ccc(NC2=C(Cl)C(=O)c3ccccc3C2=O)cc1 | inconclusive: 2.51 µM [inhibitor, full curve, poor fit] | – |

| SMILES | Potency | activity, negative = inhibition |
| --- | --- | --- |
| Cc1ccc(CNC(=O)C2CCC(=O)N(C3CC3)C2)cc1 (stereo not drawn) | – | inactive: 0% |
| O=C(Nc1cccc(S(=O)(=O)Nc2ccc(Cl)cc2)c1)c1cc2c(s1)CCCC2 | inconclusive: 17.8 µM [inhibitor, single point] | – |
| COC(=O)[C@@H]1[C@@H](C)N(Cc2ccccc2)C(=O)N[C@H]1c1ccccc1 | – | inactive: 1.95% |
| Cc1ccnc(Sc2ccc([N+](=O)[O-])cn2)n1 | – | inactive: 5.76% |
| Nc1nc2ncc(CNc3ccc(C(=O)NC(CCC(=O)O)C(=O)O)cc3)nc2c(=O)[nH]1 (stereo not drawn) | inconclusive: 3.16 µM [inhibitor, single point] | – |
| CCc1ccc(N(CC(=O)NC(C)C)C(=O)CCC(=O)Nc2nccs2)cc1 | – | inactive: 9.24% |
| COC(=O)/C(=N\OCc1ccc(C#N)cc1)c1c(C)nn(C)c1C | inconclusive: 0.0794 µM [inhibitor, full curve, poor fit] | – |
| COc1ccccc1N1CCN(C(=O)c2cc(-c3ccc(C)cc3)on2)CC1 | inconclusive: 7.08 µM [inhibitor, partial curve, poor fit] | – |
| COc1cc(CNc2ccc(N3CCN(C(C)=O)CC3)cc2)ccc1OCc1ccc(F)cc1 | inconclusive: 35.5 µM [inhibitor, partial curve, poor fit] | – |
| Cc1ccc(NC(=S)N(CCN(C)C)Cc2cc3cccc(C)c3[nH]c2=O)cc1 | – | inactive: 2.53% |
| CN(C)C(=O)N1CCC(C(=O)NCc2ccc3c(c2)OCO3)CC1 | – | inactive: 5.27% |
| CC1CCC(NC(=O)CCc2cn(Cc3ccccc3Cl)c3ccccc23)CC1 (stereo not drawn) | active: 15.8 µM | – |
| COc1ccc(C(C#N)=C2C=CC(=NO)c3ccccc32)cc1 | inconclusive: 6.31 µM [inhibitor, partial curve, poor fit] | – |
| COc1ccc(-c2oc3cc(O)c(OC)c(O)c3c(=O)c2OC)cc1O | inconclusive: 15.8 µM [inhibitor, single point] | – |
| CC1(c2nnc(-c3ccc(Cl)cc3)o2)CC(c2ccc(Cl)cc2)=NO1 (stereo not drawn) | – | inactive: 1.49% |
| C=CCn1c(CSc2nc3ccccc3s2)nnc1SCC(=O)NCCN1CCOCC1 | inconclusive: 35.5 µM [inhibitor, single point] | – |
| CC(=O)Nc1ccc(NC(=O)CCc2nc3ccccc3c(=O)[nH]2)cc1 | – | inactive: 1.15% |
| CCCCCCCCN1[C@@H](CC(=O)OCC)c2cc(C(F)(F)F)ccc2S1(=O)=O | inconclusive: 14.1 µM [inhibitor, single point] | – |
| Cc1nn(Cc2c(F)cccc2Cl)c(=O)c2ccccc12 | – | inactive: 6.35% |
| COC(=O)c1cnc(N2CCCN(S(=O)(=O)c3ccccc3)CC2)nc1C(F)(F)F | inconclusive: 31.6 µM [inhibitor, single point] | – |
| COc1ccc(C(=O)OCC(=O)N(Cc2ccccc2)Cc2ccccc2)c(O)c1 | – | inactive: -8.14% |
| Cc1cccc2sc(N(CCCN(C)C)C(=O)c3ccc4ncsc4c3)nc12 | inconclusive: 17.8 µM [inhibitor, single point] | – |
| CCOC(=O)c1sc(NC(=O)c2ccc(S(=O)(=O)N(C)C)cc2)nc1C | – | inactive: -2.33% |

| SMILES | Potency | activity, negative = inhibition |
| --- | --- | --- |
| Cc1ccc(N2CCn3c2nc2c3c(=O)n(CCCc3ccccc3)c(=O)n2C)cc1C | – | inactive: -20.5% |
| Cc1ccc(-c2cc(C(=O)Nc3cccnc3)c3ccccc3n2)s1 | inconclusive: 10 µM [inhibitor, partial curve, poor fit] | – |
| O=C(NC1CC(=O)N(c2ccccc2)C1)c1ccc(S(=O)(=O)N2CCCCC2)cc1 (stereo not drawn) | – | inactive: 0.619% |
| Oc1c(CN2CCN(c3ccc(F)cc3)CC2)cc(Cl)c2cccnc12 | active: 7.08 µM | – |
| CCC1CCCCN1S(=O)(=O)c1ccc(NC(=O)c2cccs2)cc1 (stereo not drawn) | inconclusive: 14.1 µM [inhibitor, partial curve, poor fit] | – |
| O=C(Nc1ccc2c(c1)N(Cc1ccccc1)C(=O)c1ccccc1S2)NC1CC1 | inconclusive: 25.1 µM [inhibitor, single point] | – |
| CCOc1cc(C(=O)Nc2ccc(NC(C)=O)cc2)ccc1OCC(=O)N1CCCCC1 | – | inactive: 3% |
| CCC(C)[C@H]1CN=C(N)N1CCc1cccc(F)c1 (stereo partly drawn) | inconclusive: 5.62 µM [inhibitor, single point] | – |
| O=c1[nH]c(NCCCO)nc2c1C1(CCCC1)Cc1ccccc1-2 | inconclusive: 11.2 µM [inhibitor, single point] | – |
| CC(=O)Nc1nc(CC(C)C)cc2c1c(=O)oc1ccccc12 | inconclusive: 5.62 µM [inhibitor, single point] | – |
| COc1ccc(/C=C2\SC(=S)N(CCC(=O)N(CCO)Cc3ccccc3)C2=O)cc1OC | inconclusive: 11.2 µM [inhibitor, partial curve] | – |
| CCN(CC)CCCn1c(C)cc2c(c1=O)C(c1ccccc1)C(C#N)=C(N)O2 (stereo not drawn) | inconclusive: 6.31 µM [inhibitor, single point] | – |
| Cc1ccc2nc(-c3ccc(NS(=O)(=O)c4ccccc4)cc3)sc2c1 | inconclusive: 35.5 µM [inhibitor, single point] | – |
| COc1cc(/C=C2/CCC/C(=C\c3cc(O)c(OC)c(Cl)c3)C2=O)cc(Cl)c1O | inconclusive: 35.5 µM [inhibitor, single point] | – |
| OC(c1ccc(-c2ccccc2)cc1)c1ncc(-c2ccc(C(F)(F)F)cc2)[nH]1 (stereo not drawn) | inconclusive: 25.1 µM [inhibitor, single point] | – |
| COc1cc(OC)c(NC(=O)CCCn2nc(C)c3c(C)n(-c4ccccc4)nc3c2=O)cc1Cl | – | inactive: -26.2% |
| Cc1cc(C)nc(N/N=C/c2ccc([N+](=O)[O-])o2)n1 | inconclusive: 35.5 µM [inhibitor, single point] | – |
| COc1ncnc2c1ncn2CCCNCC(c1ccccc1)c1ccccc1 | – | inactive: 0.815% |
| COc1cc2ncnc(NCc3ccccc3C)c2cc1OC | – | inactive: -13.9% |
| COC(=O)N/N=C/c1ccc([N+](=O)[O-])s1 | inconclusive: 28.2 µM [inhibitor, partial curve, poor fit] | – |
| CCOCCCNC(=S)NCCCNc1nc2c(C)c(C)ccc2cc1C#N | inconclusive: 35.5 µM [inhibitor, single point] | – |
| CNS(=O)(=O)c1cccc(C(=O)OCC(=O)Nc2ccc(OC)cc2[N+](=O)[O-])c1 | – | inactive: 7.32% |
